Among all 44,000 compounds or so, about 340 (0.77%) were called active. Roughly 5% stayed inconclusive and do not appear here. The call rests on the fitted dose curve; in most records, active means well fitted inhibition curve with a large enough effect; inconclusive means small, poorly fitted or top-dose-only effect; inactive means flat fitted curve, though single readings scatter. The list shows a part of the results.
Test: Acumen qHTS Assay for Inhibitors of the mTORC1 Signaling Pathway in MEF (Tsc2-/-, p53-/-) Cells: Sytravon;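 further: plate controls were DMSO for no effect and rapamycin for full effect; nearly all actives have a fitted effect of over 50% in size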
Settings: phospho-rpS6 immunofluorescence/PI, 24 h; series mostly up to 38.3 µM; activity change, negative = inhibition: at the top concentration
In short: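 Tsc2-/-, p53-/- mouse embryonic fibroblasts (empty-vector line) exposed to compound 24 hrs at 37 C, fixed, immunostained for phospho-rpS6 and counterstained with propidium iodide. Acumen laser scanning gives % positive cells from Alexa 488/PI ratio, thresholded using 7.5 nM rapamycin; PI count gives viability.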

Row | Compound | activity change, negative = inhibition
1 | CC(C)COc1ccc(C(=O)N2CCN(CCc3ccccn3)CC2)cc1 | inactive: -6.55%
2 | O=C(CSc1ncc(CO)n1Cc1ccccc1)Nc1ccc(C(F)(F)F)cc1 | inactive: -4.54%
3 | COc1cccc(C2c3c(-c4ccccc4O)n[nH]c3C(=O)N2CCc2ccc(OC)c(OC)c2)c1 (stereo not given) | inactive: 1.78%
4 | O=C(Nc1nnc(S(=O)(=O)N2CCc3ccccc32)s1)c1ccccc1 | inactive: 12.8%
5 | CCOc1nc(-c2ccc(C)cc2)ccc1-c1noc(-c2ccccc2F)n1 | inactive: 0.974%
6 | CCc1ccc(-c2nc(-c3cc4ccccc4oc3=O)sc2C)cc1 | inactive: 2.27%
7 | Cc1ccc(Sc2c(C(=O)NCc3ccccc3C)[nH]c3ccccc23)cc1 | inactive: -4.3%
8 | COc1cc(NC(=O)c2cnc3c(-c4ccc(F)cc4)c(C)nn3c2C)cc(OC)c1 | inactive: -10.1%
9 | Cc1ccc(-c2nc3ccc(Cl)cn3c2Nc2ccc3c(c2)OCCO3)s1 | inactive: 3.31%
10 | COc1ccc(CNC(=O)CN2C(=O)CCCc3ccccc32)cc1 | inactive: -0.451%
11 | CCN(CC)S(=O)(=O)c1ccc2oc(C(=O)Nc3ccc(Br)cc3F)c(C)c2c1 | inactive: 8.99%
12 | COc1ccc(NC(=O)CC(C)n2nc(C)cc2C)cc1Cl (stereo not given) | inactive: -0.962%
13 | COc1ccc(CCNC(=O)CCc2c(C)c3cc4c(C)c(C)oc4cc3oc2=O)cc1 | inactive: -4.05%
14 | CCn1c(C(=O)Nc2cc(Cl)ccc2C)cc2sc(Cl)cc21 | inactive: -11.6%
15 | CCOc1ccc(CCNC(=O)Cn2ncn3c(cc4ccccc43)c2=O)cc1OCC | inactive: 1.38%
16 | CCOC(=O)C(=O)Nc1c(C(=O)Nc2cccc(F)c2)oc2ccccc12 | inactive: -3.48%
17 | COc1ccccc1N1CCN(c2nc3c(S(=O)(=O)c4ccc(C)c(C)c4)nnn3c3ccc(Cl)cc23)CC1 | inactive: -5.06%
18 | CCN(CCCNC(=O)c1nn(-c2ccc(OC)c(Cl)c2)c(=O)c2c1c1ccccc1n2C)c1cccc(C)c1 | inactive: 0.586%
19 | Cc1ccc(Cn2c(CNS(=O)(=O)c3ccc(Cl)s3)nc3cccnc32)cc1 | inactive: -1.69%
20 | Cc1cccc(-c2nc(SCC(=O)NCc3ccco3)c3c(=O)n(C)c(=O)n(C)c3n2)c1 | inactive: -18.4%
21 | Cc1cc2[nH]c(=O)c(=O)[nH]c2cc1S(=O)(=O)N1CCN(c2cccc(C)c2C)CC1 | inactive: -7.68%
22 | CCc1ccccc1Nc1cc(C(=O)NC2CCC(C)CC2)c2ccccc2n1 (stereo not given) | inactive: -13.5%
23 | COc1ccc(CNC(=O)c2cc(-c3ccc(C)c(C)c3)n[nH]2)cc1 | inactive: -0.397%
24 | CCc1c(C)sc(NC(=O)C2c3ccccc3Oc3ccccc32)c1C(=O)OC(C)C | inactive: 5.68%

Row | Compound | activity change, negative = inhibition
25 | CCOC(=O)c1cccc(NC(=O)C2CCCN(c3nnc(C)c4c(C)n(-c5ccccc5)nc34)C2)c1 (stereo not given) | inactive: -5.56%
26 | O=C(Nc1cc(Cl)cc(Cl)c1)c1cc(S(=O)(=O)N2CCc3ccccc3C2)ccc1F | inactive: -3.59%
27 | COc1ccc(C(=O)Nc2c(C(=O)c3ccccc3)oc3ccccc23)cc1 | inactive: -14.4%
28 | COc1ccc(OC)c(C2C(C(=O)Nc3ccccc3OC)=C(C)Nc3c(C(=O)Nc4ccc(F)cc4)cnn32)c1 (stereo not given) | inactive: -3.35%
29 | Cc1ccc(-c2nnc3ccccc3c2C(=O)Nc2cccc(Cl)c2)cc1 | inactive: -5.63%
30 | Cn1c(=O)c(=O)n(C)c2cc(N3CCOCC3)c(NS(=O)(=O)c3ccc(F)c(Cl)c3)cc21 | inactive: 2.78%
31 | COc1ccc(NC(=O)c2cc3cc(C)ccc3n2C)cc1 | inactive: 1.97%
32 | CC(C)(C)OC(=O)N1CCC(c2c(C(=O)NCc3ccc4c(c3)OCO4)cnn2-c2ccccc2Cl)CC1 | inactive: 4.68%
33 | COc1ccc(C(=O)Nc2nnc(S(=O)(=O)N(CC(C)C)c3ccccc3)s2)cc1 | inactive: 0%
34 | COc1ccc(NC(=O)c2ccc3c(c2)nnn3C2CCCC2)cc1Cl | inactive: -9.81%
35 | Cc1ccc(Cn2c(C(=O)O)c(CNCc3cccs3)c3ccc(C)cc32)cc1 | inactive: -3.46%
36 | Cc1ccc(Cl)cc1NC(=O)c1ccc2snnc2c1 | inactive: -1.22%
37 | COc1cc(NC(=O)NCCn2nnc3cc(S(=O)(=O)N(C)C)ccc32)cc(OC)c1 | inactive: 5.45%
38 | CCN(C(=O)c1cc(S(=O)(=O)N2CCc3ccccc32)cn1C)c1cccc(C)c1 | inactive: 7.74%
39 | CC1=C(C(N)=O)C(c2ccc(F)cc2)n2nc(-c3ccc(N(C)C)cc3)nc2N1 (stereo not given) | inactive: 6.46%
40 | CNS(=O)(=O)c1cn(CC(=O)Nc2ccc(C)c(N(C)C)c2)cc1S(=O)(=O)NC | inactive: -0.32%
41 | Cc1ccc2c(=O)c(C(=O)c3ccc(F)cc3)cn(CC(=O)NCc3ccccc3Cl)c2n1 | inactive: -19.7%
42 | Cc1ccc(-c2nn(CC(=O)NC3CCCCC3)c3c2cnc2ccccc23)cc1 | inactive: 6.86%
43 | Cc1ccc(Cl)cc1N1CCN(C(=O)c2cccn2-c2nnc(N3CCCC3)s2)CC1 | inactive: 2.8%
44 | CCn1ccc2cc(S(=O)(=O)N3CCCN(C(=O)Nc4ccc(C)c(F)c4)CC3)ccc21 | inactive: -0.505%
45 | COc1ccc(CNC(=O)C(C)N2Cc3ccccc3C2=O)cc1 (stereo not given) | inactive: -1.6%
46 | CCCc1ccc(OCC(=O)Nc2sc3c(c2C(=O)OC)CCCCC3)cc1 | inactive: 2.16%
47 | CC(C)CC(=O)NCC1(N(C)C)CCCCC1 | inactive: 1.78%
48 | CCCCOc1ccccc1C(=O)Nc1nonc1-c1ccccc1 | inactive: -22%

Row | Compound | activity change, negative = inhibition
49 | Cc1cccc(N(C)c2nc3ccc(C)cc3n3cnnc23)c1 | inactive: -0.282%
50 | Cc1nc(-c2ccccc2)sc1CCNC(=O)C(=O)Nc1ccc2c(c1)OCCO2 | inactive: -0.573%
51 | Cc1ccc(CNC(=O)CCCN2C(=O)c3cccnc3Oc3ccc(Cl)cc32)cc1 | inactive: -0.963%
52 | O=C(Nc1nnc(S(=O)(=O)N2CCCCCC2)s1)c1ccccc1Cl | inactive: -7.48%
53 | Cc1cccc(NC(=O)C(Cc2ccccc2)n2cccc2)c1C (stereo not given) | inactive: 1.81%
54 | CCOc1ccc(NC(=O)c2cc3c(s2)-c2ccccc2OC3)cc1 | inactive: -3.03%
55 | Cc1cccc(-c2nc(CSCC(=O)N3CCN(c4ccccc4)CC3)c(C)o2)c1 | inactive: -10.7%
56 | COc1ccccc1N1CCN(c2ccc(-c3nc(-c4ccccc4C)no3)cc2[N+](=O)[O-])CC1 | inactive: 6.88%
57 | COc1ccccc1Cc1nc2ccccc2nc1SCC(=O)N1CCc2ccccc21 | inactive: 0.831%
58 | CCOC(=O)c1ccc(NC(=O)CSc2nccn2-c2ccc(OCC)cc2)cc1 | inactive: -16.8%
59 | CCC(C)NC(=O)C1CCN(C(=O)c2ccc(-n3ccc4ccccc43)s2)CC1 (stereo not given) | inactive: -6.73%
60 | COc1ccccc1CCNC(=O)Cc1c(C)c2c(cc(C)c3c(C)c(C)oc32)oc1=O | inactive: -3.5%
61 | FC(F)(F)c1cccc(-c2nnn3c2nc(NC2CCCCC2)c2ccccc23)c1 | inactive: -32.9%
62 | Cc1cccc(N2CCN(C(=O)Cn3cnc4sc(C)c(S(=O)(=O)N5CCN(c6ncccn6)CC5)c4c3=O)CC2C)c1 (stereo not given) | inactive: -15%
63 | COc1cc([N+](=O)[O-])ccc1NC(=O)N1CCN(c2cc(-c3noc(C)n3)ccc2C)CC1 | inactive: 1.13%
64 | CCOc1ccc(CCNC(=O)c2cc(=O)[nH]c3ccc(S(=O)(=O)N4CCCCC4)cc23)cc1OCC | inactive: 12.6%
65 | CCOc1ccccc1CNC(=O)C1CCN(S(=O)(=O)c2c(C)noc2/C=C/c2ccc(C)cc2)CC1 | inactive: -1.74%
66 | COc1cccc(NC(=O)C(=O)NCCc2csc(-c3ccc(C(F)(F)F)cc3)n2)c1 | inactive: -2.26%
67 | Cc1ccccc1OCC(=O)Nc1ccc(OCc2cc(=O)n3ccsc3n2)cc1 | inactive: 1.65%
68 | CCOC(=O)c1cccc(NC(=O)N2CCC(CN3CCc4ccccc4C3)CC2)c1 | inactive: -2.29%
69 | FC(F)(F)c1cccc(N2CCN(Cc3nnc(-c4ccc5c(c4)OCO5)o3)CC2)c1 | inactive: 4.31%
70 | O=C(Cc1ccc(F)cc1)NCc1nc2cccnc2n1Cc1ccc(F)cc1 | inactive: -2.01%
71 | CCOc1ccc(S(=O)(=O)c2c[nH]c3ccccc3c2=O)cc1 | inactive: 5.39%
72 | COc1ccc(CCNC(=O)C2CCN(c3ncnc4c3nc3n4CCCCC3)CC2)c(OC)c1 | inactive: -3.49%

Row | Compound | activity change, negative = inhibition
73 | Cc1ccccc1C(=O)Nc1ccc2nc(Nc3cccc(C(F)(F)F)c3)cc(C)c2c1 | inactive: -29.4%
74 | CC1CCCN(Cc2nc3c(c(=O)n(C)c(=O)n3C)n2Cc2ccc(Cl)cc2Cl)C1 (stereo not given) | inactive: -3.74%
75 | NS(=O)(=O)c1ccc(CCNC(=O)c2ccc3nc(Cc4ccccc4)oc3c2)cc1 | inactive: 5.79%
76 | CC(C)(C)C1CCc2c(sc(NC(=O)CCC(=O)O)c2C(=O)Nc2ccccc2C(F)(F)F)C1 (stereo not given) | inactive: -0.0356%
77 | CCCc1cc(=O)oc2cc(C)c3c(-c4cccc(OC)c4)coc3c12 | inactive: 0.607%
78 | CCOC(=O)c1cccc(NC(=O)N2CC(CC)Sc3ccccc32)c1 (stereo not given) | inactive: 0.13%
79 | COc1cccc(-c2nc(SCC(=O)NCC3CCCO3)c(-c3ccc(F)cc3)[nH]2)c1 (stereo not given) | inactive: -0.806%
80 | COc1cccc(CNC(=O)c2ccc(-c3nc(CS(=O)(=O)c4ccccc4)c(C)o3)cc2)c1 | inactive: -10.9%
81 | CN(C)CCNC(=O)CN1C(=O)CCn2nc(-c3cn(C)c4ccccc34)cc21 | inactive: -4.27%
82 | CCc1ccc(NC(=O)Cn2ncc3c(C)n(Cc4cccc(Cl)c4)c(C)c3c2=O)cc1 | inactive: -1.76%
83 | Cc1cc(C)cc(-n2nnc(-c3nsc(NC(=O)c4ccccc4Cl)n3)c2C)c1 | inactive: 0.298%
84 | O=C(Nc1cccc(C(=O)N2CCN(c3ccccc3F)CC2)c1)c1nsc2ccccc12 | inactive: 0.125%
85 | COC(=O)c1cc2sccc2n1Cc1nc(-c2cccc(Br)c2)oc1C | inactive: -14.6%
86 | CC(=O)Nc1ccc(S(=O)(=O)NCc2ccc(C(=O)NCc3ccc(Cl)cc3)cc2)cc1 | inactive: -13%
87 | COc1ccc(CCNC(=O)c2cnc3sc(N4CCC(C)CC4)nn3c2=O)cc1OC | inactive: 5.59%
88 | CCC1CCCCN1C(=O)CSc1n[nH]c(-c2ccccc2Cl)n1 (stereo not given) | inactive: 5.22%
89 | CCN(c1ccc(OC)cc1)S(=O)(=O)c1nnc(NC(=O)c2ccccc2C)s1 | inactive: -8.52%
90 | CCOc1ccc(NC(=O)Cn2c(=O)n(CC3CCCO3)c(=O)c3ccccc32)cc1 (stereo not given) | inactive: -3.63%
91 | CCc1ccc(-n2nc(C)c3c(C)cc(=O)n(CC(=O)NCc4ccc(C)cc4)c32)cc1 | inactive: -5.15%
92 | CCc1ccc(NC(=O)CSc2nc(C)cc(COC)c2C#N)cc1 | inactive: 4.23%
93 | CC(C)CCNc1nc2c(S(=O)(=O)c3ccc(Br)cc3)nnn2c2ccsc12 | inactive: -3.43%
94 | CCc1cc2c(cc3c(=O)n(CC(=O)N4CCN(c5cc(Cl)ccc5C)CC4)nc(CC)n32)s1 | inactive: -10.6%
95 | CCCCCCc1cc2cc(-c3nnc(-c4ccc(C)cc4)o3)c(=O)oc2cc1O | inactive: 9.46%

From PubChem BioAssay AID493208 (National Center for Advancing Translational Sciences (NCATS), 2011)
